Experimental data from the supplement of paper PMC11417369.
± gives the standard deviation of the averaged measurements. This is one part of the list.

tested on: PfAP2-EXP AP2 domain (GST-tagged); assay: gcPBM binding intensity (ln(normalized median fluorescence intensity)); higher = stronger DNA binding
Outline: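 Each value is the highest Masliner-normalised natural-log median intensity across replicate spots of either orientation of a probe. The probes were primer-extended double-stranded 36-bp intergenic genomic sequences on an Agilent 4 × 180k array, alongside negative controls, exposed for 1 h to GST-tagged P. falciparum DNA-binding domains expressed in E. coli. Bound protein was picked up with Alexa488 anti-GST antibody and scanned at 488 nm.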

Row | Sequence | gcPBM binding intensity (ln)
1 | AAAAAAAAAAAAAAAAGTACTCTATAAGTAACATTT [XGTACX_site6973] | 8.455 ± 0.007
2 | ATTTTTTTGTTATTGTTGAAAAGATGGTTCTTTTTT [CACACA_negctrl_site1346] | 8.59 ± 0.53
3 | AATTTCTTATTTTGTACACACAATAAATATTCACAT [CACACA_site1612] | 8.72 ± 0.33
4 | ATGAACATATTTTTTTGTACTTATGAAAATATGTTA [XGTACX_site5996] | 8.51 ± 0.38
5 | AAGTTAGGATAGATCCAATAATTTTTAGTTTCTCTT [GTGCAC_negctrl_site272] | 8.09 ± 0.48
6 | TAGTAGTTATCATTAACATGCAATAATATTATTTAA [TGCATGCA_site178] | 8.38 ± 0.3
7 | ATATAATTATAAAATAAACACACATATATATTTATA [CACACA_site8039] | 8.19 ± 0.49
8 | TAATGTTACACAAACTTTTCATTCTTTTTAATAAAT [TGCATGCA_negctrl_site331] | 8.3 ± 0.33
9 | ATATATATATATATATGTACATAGAGAAGTATCTTT [XGTACX_site4737] | 10.4 ± 0.17
10 | TTATTTATTTATAATTGTACATTGCAAATGAATTTA [XGTACX_site4083] | 8.22 ± 0.3
11 | AACATTTTAAATTATACACACATTTTGAATATATAT [CACACA_site3470] | 8.46 ± 0.4
12 | TGTTGTTGTAATTATTGTACGTTATGCGATTATTAT [XGTACX_site7005] | 8.53 ± 0.17
13 | TATACACCCAGACACACACACACACCCAAAAAAAAA [CACACA_site497] | 8.44 ± 0.46
14 | TCAATTAGACGAAAATGTACATATGTATATATTTTT [XGTACX_site5027] | 8.32 ± 0.37
15 | AAAATAAACTATAGTACACACTTATTATTATGAAAT [CACACA_site5488] | 8.52 ± 0.3
16 | GATATATTTTATATATGTACATACAAGGGTAAATAT [XGTACX_site1202] | 8.81 ± 0.36
17 | AAAATATGTAGCTACACACACATAAACAAAATAACA [CACACA_site1007] | 8.84 ± 0.48
18 | ATTTTATAAAGGAAGTGTACTAATAAATTCAAATTA [XGTACX_site3922] | 8.57 ± 0.11
19 | TCGATGTTGGTAGGATGTACGGTACCGGTAGTATTT [XGTACX_site4214] | 8.85 ± 0.64
20 | AAAAAAGAATTGTGCACACACAAAAAATGTTCATAA [CACACA_site1103] | 8.53 ± 0.11
21 | AAGAAAAAATATACTTCACACATTTAATATATAATT [CACACA_site4919] | 8.22 ± 0.41
22 | AAAAAAAAAAAAAAATGTACAAATATATACATATAT [XGTACX_site935] | 8.21 ± 0.21

Row | Sequence | gcPBM binding intensity (ln)
23 | TAAAATATTTTTTGTAGTACCTTAATATTTTTGAAG [XGTACX_site3048] | 8.48 ± 0.34
24 | GTGTAATATGAAATGTGTACACACGCACACACAAAA [XGTACX_site6180] | 8.88 ± 0.2
25 | TAAATATAATCTAAATGTACATGACATAATTTTTTT [XGTACX_site2856] | 8.05 ± 0.32
26 | AATAAATACTAAATGGTGCAAAATTTTTTAACACTG | 8.57 ± 0.18
27 | TTTCAAAAATGAGTTACACACACACCGATATATATA [CACACA_site5263] | 8.79 ± 0.61
28 | AGCCACCATATTTACACACACATCAAAATGTATTAA [CACACA_site1816] | 8.71 ± 0.4
29 | TATATATATTATAGATGTACTTTCATATATATGTTT [XGTACX_site8189] | 8.57 ± 0.099
30 | ATAGTATCTGGTAGCTGTACGAGTCGTAGAGTCTAA [XGTACX_site2539] | 8.51 ± 0.47
31 | ATATACAATACAAAAACACACACAAAAAAAGAAAAG [CACACA_site8668] | 8.8 ± 0.54
32 | ATGTATATTTTTAAAAGTACAGAATTTTCATATGAA [XGTACX_site5754] | 8.59 ± 0.55
33 | TATTTATTTATGTACGCACACAGTTGATATTAATTC [CACACA_site2754] | 8.81 ± 0.33
34 | GAAAAAGATGCGCATACACACAGATGAATAACAAAA [CACACA_site1628] | 8.94 ± 0.59
35 | ATATATATATATATATGTACATAATTAATAGCATAT [XGTACX_site1428] | 10.2 ± 0.36
36 | ATCATATTTATGTTGGTGCATTATACATAAAGTTTA [GTGCAC_site9574] | 9.39 ± 0.68
37 | TATATAATAAGAAAATATGTGCGTAGTTCAGCAAAA [XGTACX_negctrl_site304] | 8.69 ± 0.39
38 | AAAATAAGAAAACAAATGCACACCATTTATATAGAT [CACACA_site1055] | 8.7 ± 0.26
39 | AATTGGATAAACCAATTGGATTATAATACGATATAT [CACACA_negctrl_site275] | 8.52 ± 0.35
40 | GAAAAATATATTCTGGTGCATGAATAAAATCATAAA | 8.51 ± 0.16
41 | CACAAAAAAAATTATACACACACACCCATATATATA [CACACA_site8255] | 8.77 ± 0.24
42 | ATAATTGTTTCTTTCTCCTTTTTATTTCATTTTAAA [CACACA_negctrl_site964] | 8.86 ± 0.52
43 | AAAGGATATATCCAGAGTACATATTCTGTGTAATAC [XGTACX_site1547] | 8.7 ± 0.29
44 | TATTCATCACTTTTTTGTACTTATGGATAAAATTTT [XGTACX_site3349] | 8.79 ± 0.42
